# Several values for one entry are separate records, joined by “and”; a condition that tells them apart may be missing. Equal entries are not always repeated. Some of the results follow. Shown are side measurements of this screen, not its main read-out; they come without a call.
# How the values were obtained:
# Assay in all cases: Primary Screen for Target Class Profiling of Small Molecule Inhibitors of Methyltransferases
# [1] = molecular target: Glycine N-methyltransferase (Homo sapiens) (UniProt Q14749); details: purified enzyme, MTase-Glo SAH luminescence; measured here: GNMT inhibition; at 40 µM; stronger effect = lower value
# Outline: (§1)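 Each enzyme was assayed with SAM and its substrate. SAH formation detected by MTase-Glo luminescence; single-point 40 uM screen[…].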
# [2] = molecular target: Guanidinoacetate N-methyltransferase (Homo sapiens) (UniProt Q14353); details: purified enzyme, MTase-Glo SAH luminescence; measured here: GAMT inhibition; at 40 µM; stronger effect = lower value
# Outline: as §1
# [3] = molecular target: Histamine N-methyltransferase (Homo sapiens) (UniProt P50135); details: purified enzyme, MTase-Glo SAH luminescence; measured here: HNMT inhibition; at 40 µM; stronger effect = lower value
# Outline: as §1
# [4] = molecular target: Nicotinamide N-methyltransferase (Homo sapiens) (UniProt P40261); details: purified enzyme, MTase-Glo SAH luminescence; measured here: NNMT inhibition; at 40 µM; stronger effect = lower value
# Outline: as §1
# [5] = molecular target: Phenylethanolamine N-methyltransferase (Homo sapiens) (UniProt P11086); details: purified enzyme, MTase-Glo SAH luminescence; measured here: PNMT inhibition; at 40 µM; stronger effect = lower value
# Outline: as §1
# On the % scale 0 is the no-effect control and ±100 the full control effect.
SMILES,"activity change, negative = inhibition [1]","activity change, negative = inhibition [2]","activity change, negative = inhibition [3]","activity change, negative = inhibition [4]","activity change, negative = inhibition [5]"
C[C@@H](N)Cc1cnc[nH]1,-1.42%,10%,108%,-1.59%,10.4%
O=C(Nc1ccccc1F)N1Cc2ccccc2-n2cccc2C1c1ccc(F)cc1 (stereo not given),-2.06%,-1.07%,-2.26%,-6.15%,-0.011%
Clc1cc(I)cc(Cl)c1NC1=NCCN1,5.89%,10.7%,2.67%,-6.11%,0.266%
COCCCNC(=O)N1Cc2ccccc2-n2cccc2C1c1ccc(C(C)C)cc1 (stereo not given),-3.04%,0%,6.5%,-4.38%,0.38%
Cc1ccc(C2c3cccn3-c3ccccc3CN2C(=O)Nc2ccc(Cl)cc2)cc1 (stereo not given),12.1%,0%,0.191%,1.33%,1.12%
O=C1CN=C(c2ccccc2Cl)c2cc(Br)ccc2N1,-23.3%,-31.3%,-11.3%,-45.9%,-16.4%
C[C@@H]1O[C@@H](O[C@H]2C[C@@H](O)[C@]3(CO)[C@H]4[C@H](O)C[C@]5(C)[C@@H](C6=CC(=O)OC6)CC[C@]5(O)[C@@H]4CC[C@]3(O)C2)[C@H](O)[C@H](O)[C@H]1O,-5.21% and 6.08%,2.03% and 8.14% and 2.34%,-2.38% and 5.31%,-7.67% and -2.67% and -9.18%,0.685% and 7.63% and -0.315%
CCc1ccccc1NC(=O)N1Cc2ccccc2-n2cccc2C1c1ccccc1 (stereo not given),2.72%,0%,3.8%,2.42%,2.82%
CCC1c2cccn2-c2ccccc2CN1C(=O)Nc1cc(Cl)ccc1OC (stereo not given),4.56%,2.64%,3.67%,4.75%,7.47%
CCc1ccc(C2c3cccn3-c3ccccc3CN2C(=O)Nc2cc(C)ccc2C)cc1 (stereo not given),4.24%,1.04%,-0.286%,2.4%,5.37%
CCOC(=O)CNC(=O)N1Cc2ccccc2-n2cccc2C1c1ccc(Cl)cc1 (stereo not given),-3.04%,6.1%,-8.23%,-5.14%,3.41%
CC1=CC2/C=C(\C)CCC(O)C3OC(C)(C)OC3CC(=O)OC23C(=O)NC(CC(C)C)C3C1C (stereo not given),-0.183%,5.39%,1.49%,-9.91%,5.11%
NC(=O)COc1c(F)cc(SCCNS(=O)(=O)c2ccccc2)cc1F,-10.9%,1.89%,-2.23%,-26.8%,3.23%
CCCNC(=O)N1Cc2ccccc2-n2cccc2C1c1ccccc1 (stereo not given),3.27%,7.62%,-3.05%,-5.9%,1.91%
CC(C)c1ccc(C2c3cccn3-c3ccccc3CN2C(=O)Nc2ccc3c(c2)OCCO3)cc1 (stereo not given),-5.42%,-1.3%,1.26%,-2.19%,-1.73%
CCCN1CCC[C@H](c2cccc(O)c2)C1,9.33%,12%,-12.8%,-2.13%,4.17%
O=C(Nc1ccccc1)N1Cc2ccccc2-n2cccc2C1c1cccc(Cl)c1 (stereo not given),11.2%,1.08%,2.82%,4.54%,8.31%
Cc1ccc(NC(=O)N2Cc3ccccc3-n3cccc3C2c2ccc(N(C)C)cc2)cc1Cl (stereo not given),3.72%,0%,-5.39%,1.16%,-6.37%
Cc1ccc(NC(=O)N2Cc3ccccc3-n3cccc3C2C)c(Cl)c1 (stereo not given),5.12%,0%,4.01%,-2.16%,2.62%
COc1cc(NC(=O)N2Cc3ccccc3-n3cccc3C2c2cccs2)cc(OC)c1 (stereo not given),6.79%,0%,1.33%,-1.18%,4.25%

SMILES,"activity change, negative = inhibition [1]","activity change, negative = inhibition [2]","activity change, negative = inhibition [3]","activity change, negative = inhibition [4]","activity change, negative = inhibition [5]"
O=C(Nc1ccc(Br)cc1F)N1Cc2ccccc2-n2cccc2C1c1cccs1 (stereo not given),9.63%,2.95%,4.88%,-5.98%,10.1%
FC(F)(F)c1ccc(N2CCNCC2)nc1Cl,6.27%,4.72%,2.86%,-8.56%,0.507%
CCOC(=O)c1ccc(-c2ccc(OC(=O)N(C)Cc3cccc(-c4ccncc4)c3)cc2)cc1,0.546%,-11.1%,10.8%,-19.4%,-6.16%
COc1cccc(NC(=O)N2Cc3ccccc3-n3cccc3C2c2ccccc2)c1 (stereo not given),9.12%,0%,2.48%,-0.016%,6.85%
C[C@H](Cc1ccc2c(c1)OC(C(=O)O)(C(=O)O)O2)NC[C@H](O)c1cccc(Cl)c1,-3.96%,5.69%,-1.64%,-4.45%,4.9%
CCOc1ccc(C2c3cccn3-c3ccccc3CN2C(=O)Nc2ccccc2F)cc1 (stereo not given),-1.8%,0.229%,5.67%,9.54%,9.69%
CCOc1ccc(C2c3cccn3-c3ccccc3CN2C(=O)Nc2ccccc2C(=O)OC)cc1 (stereo not given),-0.697%,1.87%,4.05%,2.67%,0.834%
CCC1(c2ccc(N)cc2)CCC(=O)NC1=O (stereo not given),1.59%,8.73%,4.67%,-4.04%,4.61%
c1ccc(-c2ncc3c(n2)C[C@@H]2CC[C@H]3N2)cc1,-1.12%,-6.88%,-5.31%,-5.33%,1.75%
C[N+]1(C)CCN(c2ccccc2)CC1,-19.8%,0.932%,-0.795%,-4.95%,7.12%
COc1cccc(CNC(=O)N2Cc3ccccc3-n3cccc3C2c2ccc(C)cc2)c1 (stereo not given),9.12%,0.11%,1.12%,5.61%,7.1%
CCOc1ccc(C2c3cccn3-c3ccccc3CN2C(=O)Nc2cccc(C)c2)cc1 (stereo not given),0.143%,4.3%,9.72%,5.25%,6.66%
CO[C@H]1C[C@H](O[C@H]2CC[C@]3(C=O)[C@H]4CC[C@]5(C)[C@@H](C6=CC(=O)OC6)CC[C@]5(O)[C@@H]4CC[C@]3(O)C2)O[C@H](C)[C@H]1O,3.06%,9.49%,11.9%,-3.78%,7.53%
COC1CC(O[C@H]2CC[C@]3(C)C4CC[C@]5(C)[C@@H](C6=CC(=O)OC6)[C@@H](OC(C)=O)C[C@]5(O)C4CC[C@@H]3C2)OC(C)C1O[C@@H]1O[C@H](CO)[C@@H](O)[C@H](O)[C@H]1O (stereo not given in full),-0.544%,-10.1%,5.91%,-16.6%,4.57%
N[C@@]1(C(=O)O)CC[C@@H](C(=O)O)C1,7.65%,17%,12.7%,-1.69%,4.23%
CSc1ccc(C2c3cccn3-c3ccccc3CN2C(=O)Nc2ccc(C)c(Cl)c2)cc1 (stereo not given),4.66%,0.389%,7.08%,1.26%,6.4%
C[C@]12CC[C@H](O)C[C@@H]1CC[C@@H]1[C@@H]2CC[C@]2(C)C(=O)CC[C@@H]12,1.64%,7%,11.7%,-7.54%,6.33%
Cc1ccc(C)c(NC(=O)N2Cc3ccccc3-n3cccc3C2c2cccs2)c1 (stereo not given),5.96%,0.499%,3.43%,-0.399%,4.58%
COc1ccc(C2c3cccn3-c3ccccc3CN2C(=O)NCCC(C)C)cc1OC (stereo not given),0.123%,1.69%,-5.87%,-1.23%,-0.597%

# — PubChem BioAssay AID1745853 (National Center for Advancing Translational Sciences (NCATS), 2022)
